# According to publication PMC4336329 (PLoS ONE, 2015):
# Hit rate of the full screen: of about 310,000 compounds, about 2,200 (0.71%) showed an effect of 50% or more. Effects have a minus sign here. The list shows a part of the results.
# Molecular target: human ether-à-go-go-related gene (hERG) potassium channel (human, UniProt Q12809)
# Assay: primary screen, population patch clamp on CHO cells stably expressing hERG
# Chain of human ether-à-go-go-related gene (hERG) potassium channel (Q12809 whole entry, looked up): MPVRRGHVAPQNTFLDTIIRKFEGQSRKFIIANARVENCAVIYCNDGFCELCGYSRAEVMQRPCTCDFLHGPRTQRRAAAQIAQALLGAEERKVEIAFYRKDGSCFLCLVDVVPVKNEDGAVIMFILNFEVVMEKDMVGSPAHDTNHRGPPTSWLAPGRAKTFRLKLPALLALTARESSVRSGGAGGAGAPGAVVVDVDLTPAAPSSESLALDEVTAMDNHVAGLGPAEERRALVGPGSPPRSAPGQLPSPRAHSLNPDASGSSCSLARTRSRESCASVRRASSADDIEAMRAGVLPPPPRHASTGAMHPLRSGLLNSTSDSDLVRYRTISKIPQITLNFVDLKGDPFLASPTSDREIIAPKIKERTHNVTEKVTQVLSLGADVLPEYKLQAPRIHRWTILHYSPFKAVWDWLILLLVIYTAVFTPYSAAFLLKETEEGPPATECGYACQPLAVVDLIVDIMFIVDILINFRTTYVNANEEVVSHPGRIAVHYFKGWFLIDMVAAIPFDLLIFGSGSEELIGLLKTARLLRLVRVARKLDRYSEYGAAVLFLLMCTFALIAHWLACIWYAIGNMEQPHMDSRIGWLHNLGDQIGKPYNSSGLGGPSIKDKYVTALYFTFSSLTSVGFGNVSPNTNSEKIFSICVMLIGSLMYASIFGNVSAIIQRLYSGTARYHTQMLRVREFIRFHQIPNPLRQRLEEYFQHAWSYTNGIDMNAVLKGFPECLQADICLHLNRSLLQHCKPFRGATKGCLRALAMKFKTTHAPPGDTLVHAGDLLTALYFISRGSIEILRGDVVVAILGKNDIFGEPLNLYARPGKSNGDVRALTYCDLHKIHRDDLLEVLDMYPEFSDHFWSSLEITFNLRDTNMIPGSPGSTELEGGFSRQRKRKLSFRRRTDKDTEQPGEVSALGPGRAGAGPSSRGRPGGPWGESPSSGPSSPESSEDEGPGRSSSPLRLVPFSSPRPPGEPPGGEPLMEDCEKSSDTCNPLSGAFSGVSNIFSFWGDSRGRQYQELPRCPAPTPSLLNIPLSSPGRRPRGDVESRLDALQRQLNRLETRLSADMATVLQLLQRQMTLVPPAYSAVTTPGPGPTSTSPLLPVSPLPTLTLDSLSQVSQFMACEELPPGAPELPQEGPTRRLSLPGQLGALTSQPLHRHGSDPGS
row,SMILES,"hERG current change (%, negative = inhibition) at 1uM"
1,NC(N)=Nc1ccc2[nH]c3c(c2c1)C[C@@]1(O)[C@H]2Cc4ccc(O)c5c4[C@@]1(CCN2CC1CC1)[C@H]3O5.O=C(O)C(F)(F)F,7.49%
2,CC(C)c1ccccc1NC(=O)CSc1n[nH]c(=O)n1C1CC1,9.45%
3,COc1ccc(CNC(=O)C(C)n2nc(C)c3c(C)n(-c4ccc(C)cc4)nc3c2=O)cc1 (stereo not shown),7.94%
4,O=C(N[C@@H](Cc1ccccc1)C(=O)N1CCC2(CC1)NCCc1[nH]cnc12)c1cccc(F)c1,14.5%
5,O=C(Cn1nnc(-c2ccccc2Cl)n1)N1CCN(S(=O)(=O)c2ccc(Cl)cc2)CC1,-0.486%
6,COc1ccc(CNS(=O)(=O)c2ccc(-c3ccc(=O)[nH]n3)s2)cc1OC,-2.35%
7,COc1ccc(NC(=O)c2ccc(C)cc2)cc1,12.2%
8,Cc1noc(C)c1CSCC(=O)Oc1ccc(N(C)S(=O)(=O)c2ccc(Cl)cc2)cc1,13%
9,CCN(CC(=O)Nc1cc(Cl)ccc1C)C(=O)C1COc2ccccc2O1 (stereo not shown),13.4%
10,CCN1CCCC1CNC(=O)C1c2ccccc2C(=O)N(CCOC)C1c1ccc(F)cc1 (stereo not shown),15.7%
11,CCN(CC(=O)Nc1ccc2c(c1)OCCO2)Cc1cc(=O)n2ccsc2n1,-0.0569%
12,CCC(CC)C(=O)Nc1cccc(C(=O)Nc2ccc3c(c2)OCO3)c1,15%
13,COc1ccc(CCNC(=O)COC(=O)C2CC2C)cc1 (stereo not shown),9.29%
14,C=C(C)c1nc(N)nc(N)n1,14.3%
15,CC(C)N(CCCNC(=O)c1ccc(CS(=O)(=O)c2c(Cl)cccc2Cl)o1)Cc1ccccc1,-34.2%
16,COc1cccc(CNC(=O)N[C@@H](C)C(=O)O)c1,10.7%
17,C=CCC1(Nc2ccccc2)CC(C)N(C)CC1C.O=C(O)C(=O)O (stereo not shown),2.05%
18,CC1CCN(CCNC(=O)C2CCCN(S(=O)(=O)c3cccc4nsnc34)C2)CC1 (stereo not shown),7.41%
19,CCOC(=O)N1CCN(S(=O)(=O)c2ccc(C(=O)Nc3ccc4c(c3)C(=O)NC4=O)cc2)CC1,-0.488%
20,CCOc1ccc(N(CC(=O)N/N=C(\C)c2cccc(NC(C)=O)c2)S(=O)(=O)c2ccccc2)cc1,15.4%
21,CCC(C)(CC(=O)O)CC(=O)Nc1cc(C(F)(F)F)cc(C(F)(F)F)c1 (stereo not shown),11.6%
22,CCn1cc(C(=O)NCCCOC)c(=O)c2cc(S(=O)(=O)N3CCC(C)CC3)ccc21,10%
23,O=C(N/N=C/c1ccc(O)cc1)c1ccc(COc2cc(Cl)ccc2Cl)o1,15.4%
24,CC(C)C(OC(=O)CCCC(=O)Nc1nccs1)C(=O)NC1CCCCC1 (stereo not shown),14.2%
25,COC(=O)C[C@H]1c2cc(C(F)(F)F)ccc2S(=O)(=O)N1Cc1ccccc1OC,9.81%
26,COc1ccccc1NC(=O)CCC(=O)Nc1ccccc1OC,5.77%

row,SMILES,"hERG current change (%, negative = inhibition) at 1uM"
1,COc1ccc(CCNC(=O)CC(C)(C)CC2=NS(=O)(=O)c3ccccc3N2)cc1OC,11.6%
2,O=C(O)CN1C(=O)/C(=C\c2ccccc2OCc2ccc(F)cc2)SC1=S,7.03%
3,COC(=O)c1cccn(CC(=O)c2ccc(Cl)cc2Cl)c1=O,7.98%
4,COc1cccc(/C(C)=N/N=C(\C)c2cccc(OC)c2)c1,18.5%
5,COc1cccc(CC(=O)OCC(=O)N2CCN(c3ccc(F)cc3)CC2)c1,-21.6%
6,O=C(O)CC1c2ccccc2C=Cc2ccccc21,8.55%
7,COc1ccc(CN2CCN(C3CCC3)CC2CCO)c(C)c1C (stereo not shown),11.8%
8,NC(=O)COC(=O)[C@H](Cc1c[nH]c2ccccc12)NC(=O)c1ccc(F)cc1,16.3%
9,COc1ccccc1NC(=O)Nc1nc(CC(=O)NCc2ccccn2)cs1,4.12%
10,CC1(C)CC(NC(=S)Nc2ccc([N+](=O)[O-])cc2)CC(C)(C)N1,8.78%
11,COc1ccc(NC(=O)CN(C)C(=O)c2oc3c(ccc4ccccc43)c2C)cc1,0.811%
12,CC(C)(C)S(=O)(=O)c1cnc(-c2ccccn2)nc1N,9.74%
13,CCC(=O)c1ccc(OCC(=O)OCC(=O)N(C)CC(=O)Nc2ccc(F)cc2)cc1,6.46%
14,CC(=O)OCC1OC(Sc2cccc3cccnc23)C(OC(C)=O)C(OC(C)=O)C1OC(C)=O (stereo not shown),-2.95%
15,O=[N+]([O-])c1ccc(N2CCNCC2)cc1N1CCCCC1,8.99%
16,COc1cc(NS(=O)(=O)c2ccc(Br)cc2)c(OC)cc1NC(=O)c1ccco1,-2.36%
17,N#C[C@]1(S(=O)(=O)c2ccccc2)C[C@@H]2ON=C(c3cccc(Br)c3)[C@@H]2C1,11.3%
18,CN1CCc2c(sc3nc(SCC(=O)NCc4ccco4)n(-c4ccccc4)c(=O)c23)C1,14.7%
19,CC1CCC2(CC1)NC(=O)N(CC(=O)Nc1nc(-c3ccc(F)cc3)cs1)C2=O (stereo not shown),17.9%
20,Cc1csc(NC(=O)c2c(-c3c(Cl)cccc3Cl)noc2C)n1,7.98%
21,O=C(NCCc1cnn(-c2ccccc2)c1)c1cc(COc2c(F)cccc2F)on1,2.71%
22,O=C(CSc1nnc2c(n1)[nH]c1ccc(S(=O)(=O)N3CCOCC3)cc12)Nc1ccccc1Cl,13%
23,Cc1ccc(S(=O)(=O)NC(=O)CSc2nc3ccccc3s2)cc1,2.07%
24,CCOc1ccc(-c2nc(C)c(C(C)=O)n2O)cc1,-0.9%
25,O=C(NCCC1=CCCCC1)C(=O)NCC(c1ccco1)N1CCN(c2ccccc2F)CC1 (stereo not shown),2.06%
26,COc1ccccc1CNC(=O)c1cc(S(=O)(=O)N2CCCC2)cn1C,2.2%
